The campaign covered roughly 48,000 compounds. About 1,200 (2.5%) were called active. Not shown: some 2% with an inconclusive outcome.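 The calls were made as follows: active = activation of at least 60% and not above a set upper limit (about 1 call in 100 departs from these limits); inconclusive = activation of 40% to 60%, or above that upper limit; inactive = activation under 40%.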 Some of the results follow.
target: Probable G-protein coupled receptor 32 (Homo sapiens) (UniProt O75388); experiment: qHTS for Agonists of Human Resolvin D1 Receptor DRV1; details: CHO-K1 GPR32 beta-arrestin PathHunter luminescence, 90 min; at 76.9 µM; stronger effect = higher value; zero percent set by DMSO-only wells; also: 0% is about no effect
UniProt O75388, sequence (O75388 whole entry, looked up, the tested form may be a part): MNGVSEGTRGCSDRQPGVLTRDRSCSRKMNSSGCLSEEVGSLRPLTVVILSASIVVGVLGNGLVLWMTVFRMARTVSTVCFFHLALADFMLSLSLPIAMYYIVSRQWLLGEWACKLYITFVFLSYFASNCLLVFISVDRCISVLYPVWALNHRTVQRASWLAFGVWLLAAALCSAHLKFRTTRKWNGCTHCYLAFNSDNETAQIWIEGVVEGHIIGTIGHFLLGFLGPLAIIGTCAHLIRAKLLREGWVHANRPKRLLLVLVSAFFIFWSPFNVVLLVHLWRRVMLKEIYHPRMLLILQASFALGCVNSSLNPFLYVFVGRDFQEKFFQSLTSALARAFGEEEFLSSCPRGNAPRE
How it was run: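 GPR32 activation in stably transfected CHO-K1 cells, detected as beta-arrestin recruitment by enzyme-fragment complementation. Compound exposure: 90 min, 37 °C.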

activation, inactive:
CCCCOc1ccc(CN2C(=O)C(=O)c3cc(C)ccc32)cc1OC -70%
COc1ccccc1CNc1ccc(-c2nc(-c3cccc(C)c3)no2)cc1[N+](=O)[O-] -7.18%
CCN(CC)C(=O)c1sc2c(c1C)c(=O)n(CCc1ccccc1)c(=O)n2Cc1cccc(Cl)c1 -49%
COc1ccc(-n2nc(C(=O)NCc3ccc(F)cc3)c3c4ccccc4n(C)c3c2=O)cc1 -18.5%
CCOc1ccccc1N1CC(c2nc3ccccc3n2CCCCOc2cc(C)ccc2C)CC1=O (stereo not drawn) -8.64%
CN(C)c1ccc(CNC(=O)c2ccc3c(c2)N(C)C(=O)C2CCCCN32)cc1 (stereo not drawn) 9.75%
O=C(c1cnc(N2CCOCC2)c2ccccc12)N1CCN(c2ccccc2F)CC1 -10%
COc1ccccc1CNC(=O)c1ccc2c(c1)N(Cc1ccc(C)cc1)CCS2 -17.6%
CCN(CC)S(=O)(=O)c1ccc2c(c1)N(CC(=O)NCC(C)c1ccccc1)C(=O)CO2 (stereo not drawn) -26.9%
CCc1ccccc1NC(=O)CN1C(=O)COc2ccc(S(=O)(=O)N3CCCCCC3)cc21 -6.99%
Cc1ccc(-n2ncc3c(N4CCCCCC4)ncnc32)cc1C 21.9%
CCn1cc(C(=O)N2CCN(c3ccccc3OC)CC2)c(=O)c2cc(S(=O)(=O)N3CCC(C)CC3)ccc21 -9.84%
CC(C)Oc1ccc(CNC(=O)c2ccccc2NC(=O)c2nsc3ccccc23)cc1 -14.1%
CC(=O)Oc1cccc(C)c1 2.1%
CNS(=O)(=O)c1cn(CC(=O)N2CCN(c3cccc(Cl)c3)CC2)cc1S(=O)(=O)NC 4.32%
CCN(CC)C(=O)C1=CC(c2ccc3c(c2)OCO3)=NS(=O)(=O)N1C 6.04%
Cc1ccc(NC(=O)CSc2nc3ccc(NC(=O)CCc4ccccc4)cc3s2)c(C)c1 -24.5%
O=C(CCCCn1c(=O)c2ccccc2n(Cc2ccccc2F)c1=O)NCc1ccccc1Cl -3.2%
CCC(Oc1ccccc1)C(=O)Nc1ccc(OCc2cc(=O)n3ccc(C)cc3n2)cc1 (stereo not drawn) -4.22%
Cc1oc(-c2ccccc2F)nc1CSCC(=O)NCCc1ccccc1 -2.52%
COC(=O)c1ccc(CN(Cc2ccc(OC)c(OC)c2)S(=O)(=O)c2cc(C(=O)Nc3cccc(C)c3)ccc2F)cc1 -19.2%
O=S(=O)(NCCc1nnc2ccc(SCc3c(F)cccc3Cl)nn12)c1ccccc1 -26.1%
CCCCN(C(=O)CCn1c(=O)oc2ccccc21)c1ccccc1 -7.07%
COc1ccc(OCC(=O)N2CCN(C(=O)c3cccc(OC)c3OC)CC2)cc1 3.85%
COc1cc(NC(=O)c2noc3c2CC(C(C)(C)C)CC3)cc(OC)c1OC (stereo not drawn) -0.301%
COCCn1c(C)cc(O)c(C(c2ccccc2Cl)N2CCN(c3ccccc3)CC2)c1=O (stereo not drawn) -8.26%
CCN(CC)C(=O)c1sc2c(c1C)c(=O)n(Cc1ccccc1)c(=O)n2Cc1c(C)cc(C)cc1C -21.3%
O=C(NCC(c1ccco1)S(=O)(=O)c1cccs1)c1c(F)cccc1F (stereo not drawn) -5.44%
CCOC(=O)c1ccc(NC(=O)c2c(NCc3ccc(OC)c(OC)c3OC)sc3c2CCC(C)C3)cc1 (stereo not drawn) -9.82%
O=C(NCC(c1cccnc1)N1CCc2ccccc21)c1cccc(F)c1 (stereo not drawn) -29%
Cc1nn(-c2ccc(N3CCCC3)nn2)c(C)c1CCC(=O)N1CCN(c2ccc(F)cc2)CC1 -11.7%
Cc1ccc2[nH]c(C)c(CCNC(=O)c3cc4cc(Br)ccc4oc3=O)c2c1 -17%
Cc1cccc(NC(=O)Cn2c(=O)n(CC3CCC(C(=O)NCCc4ccccc4)CC3)c(=O)c3ccccc32)c1C (stereo not drawn) 5.35%
Cc1ccc(NS(=O)(=O)c2ccc3[nH]c4c(c3c2)CCCCCC4)cc1C -1.63%
CCOC(=O)c1cc(S(=O)(=O)N(C)c2ccccc2)[nH]n1 1.69%
Cc1ccc2nc(N)[nH]c(=O)c2c1Sc1ccncc1 9.3%
CCOc1ccc(S(=O)(=O)Nc2ccc3c(c2)CCCN3S(=O)(=O)c2ccc(C)cc2)cc1 -19.4%
CCOc1ccccc1CNC(=O)CCCn1c(=O)c2cccn2c2ccc(F)cc21 -15.5%
COC(=O)c1sc2cccc(F)c2c1S(=O)(=O)NCc1ccccc1Cl -34%
COc1ccc(NC(=O)CN(C)S(=O)(=O)c2ccc3nc(C)sc3c2)cc1Cl 29.3%
Cn1c(C(=O)NCc2ccccc2F)cc2cc(S(=O)(=O)N3CCCCC3)ccc21 -13.4%
Cn1c(Oc2cccc(Cl)c2)nc2c1c(=O)n(Cc1ccccc1Cl)c(=O)n2C 7.94%
COc1ccc(CCNCc2c(C(=O)O)c(C)n(Cc3cccc(C)c3)c2C)cc1OC -2.52%
Cc1cccc(Nc2nnc(-c3ccc(C)c(S(=O)(=O)N4CCOCC4)c3)c3ccccc23)c1 -10.8%
CCCOc1ccc(C(=O)Nc2ccc(NC(=O)c3ccc(Br)cc3)cc2)cc1 -9.55%
N#C/C(=C/c1ccccc1Cl)c1nc(-c2cc3ccccc3oc2=O)cs1 -4.47%
COC(=O)c1cc(NC(=O)Cn2nc(-c3ccccc3)c3c(c2=O)CCCC3)cc(C(=O)OC)c1 -34.4%
COc1cc(C)ccc1OCCSc1nc2ccc(NC(=O)c3ccccc3F)cc2s1 3.32%
O=C(Cn1c(=O)n(CC2CCCO2)c(=O)c2ccccc21)Nc1ccc(F)cc1F (stereo not drawn) 15.2%
Fc1ccc(NCc2ccccc2-c2nnc(-c3ccccc3Cl)o2)cc1Cl -14.7%
CCc1ccc(-c2cc(C)no2)cc1S(=O)(=O)NCc1ccc(OC)cc1 12.8%
Cc1cccc2cc(-c3nc(-c4cccs4)no3)c(=O)oc12 -6.57%
Cc1sc2ncn(CC(=O)N3CCN(c4cccc(Cl)c4)CC3)c(=O)c2c1S(=O)(=O)N1CCC(C)CC1 -9.99%
